# Test results from PubChem BioAssay AID1347165 (National Center for Advancing Translational Sciences (NCATS), 2019).
# The whole screen tested about 220,000 compounds, of which about 5,700 (2.6%) were called active. This list was built around the results that the source calls inconclusive (neither active nor inactive); the mix of calls is not that of the screen. The call rests on the fitted dose curve; in most records, active means well fitted inhibition curve with a large enough effect; inconclusive means small, poorly fitted or top-dose-only effect; inactive means no such curve, though single readings can be large or run the other way. Potencies beside an inconclusive call are fits to weak or partial responses and may not hold up.
# Biological target: Lysine-specific demethylase 5B (Homo sapiens) (UniProt Q9UGL1)
# Sequence of UniProt Q9UGL1 (Q9UGL1 whole entry, looked up): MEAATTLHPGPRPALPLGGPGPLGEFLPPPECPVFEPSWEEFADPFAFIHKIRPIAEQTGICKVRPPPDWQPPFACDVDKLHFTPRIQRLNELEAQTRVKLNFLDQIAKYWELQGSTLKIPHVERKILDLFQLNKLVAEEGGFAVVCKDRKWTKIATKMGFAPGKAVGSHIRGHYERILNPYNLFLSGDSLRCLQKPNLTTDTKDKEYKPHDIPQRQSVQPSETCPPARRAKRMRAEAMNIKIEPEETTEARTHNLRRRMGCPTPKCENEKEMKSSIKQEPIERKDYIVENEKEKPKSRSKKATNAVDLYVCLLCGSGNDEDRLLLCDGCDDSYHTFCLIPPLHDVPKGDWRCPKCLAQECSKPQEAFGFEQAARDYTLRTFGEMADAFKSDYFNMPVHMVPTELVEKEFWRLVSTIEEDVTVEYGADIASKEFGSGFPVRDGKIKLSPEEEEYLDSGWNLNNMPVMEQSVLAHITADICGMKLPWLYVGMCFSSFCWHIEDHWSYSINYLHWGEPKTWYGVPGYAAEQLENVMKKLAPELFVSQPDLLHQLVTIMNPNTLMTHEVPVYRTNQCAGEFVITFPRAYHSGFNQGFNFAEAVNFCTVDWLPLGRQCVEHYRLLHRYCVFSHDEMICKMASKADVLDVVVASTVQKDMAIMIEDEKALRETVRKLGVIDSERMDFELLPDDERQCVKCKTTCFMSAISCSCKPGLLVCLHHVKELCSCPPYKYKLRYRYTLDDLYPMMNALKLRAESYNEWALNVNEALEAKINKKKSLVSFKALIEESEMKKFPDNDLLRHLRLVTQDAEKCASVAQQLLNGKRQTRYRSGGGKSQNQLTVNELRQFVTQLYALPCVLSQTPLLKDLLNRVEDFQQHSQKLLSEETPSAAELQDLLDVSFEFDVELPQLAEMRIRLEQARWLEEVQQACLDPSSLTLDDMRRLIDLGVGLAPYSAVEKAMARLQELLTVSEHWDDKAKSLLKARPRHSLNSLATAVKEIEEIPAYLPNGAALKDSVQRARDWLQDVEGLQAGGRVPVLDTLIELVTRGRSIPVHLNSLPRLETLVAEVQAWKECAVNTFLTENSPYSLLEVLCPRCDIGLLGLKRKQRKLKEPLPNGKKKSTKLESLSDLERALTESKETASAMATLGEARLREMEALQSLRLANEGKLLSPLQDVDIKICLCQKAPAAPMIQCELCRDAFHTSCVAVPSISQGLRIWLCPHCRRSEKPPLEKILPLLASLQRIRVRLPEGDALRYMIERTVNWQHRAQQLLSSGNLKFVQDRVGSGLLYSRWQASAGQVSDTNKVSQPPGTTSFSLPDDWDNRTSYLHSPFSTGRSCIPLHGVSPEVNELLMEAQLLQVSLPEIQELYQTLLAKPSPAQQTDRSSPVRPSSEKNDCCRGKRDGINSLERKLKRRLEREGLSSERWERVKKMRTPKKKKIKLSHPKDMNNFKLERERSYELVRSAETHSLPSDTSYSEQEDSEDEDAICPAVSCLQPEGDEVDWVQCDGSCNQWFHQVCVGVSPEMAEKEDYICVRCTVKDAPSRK
# Assay: Primary screen for KDM5B Histone Demethylases FDH-coupled qHTS; further: nearly all actives have a fitted effect of over 70% in size; on activity change, negative = inhibition: 0% is about no effect
# Conditions: FDH-coupled NADH fluorescence (FDH is formaldehyde dehydrogenase); activity change, negative = inhibition: at 57.7 µM (top of the series) unless noted
# Procedure, shortened: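 Coupled FDH/NAD⁺ fluorescence readout. KDM5BΔAP 200 nM final; compound titration, 10 min RT preincubation; substrate mix 12.5 µM H3K4me3, 25 µM 2-OG, 50 µM Fe(II), 100 µM ascorbate, 0.25 mM NAD⁺, 0.25 U/mL FDH; ΔRFU over 30 min.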
# Potency means the concentration at half of the fitted maximal effect; tags describe the fitted curve by direction and shape.
Structure (SMILES),"activity change, negative = inhibition",Potency
CC(C)(C)CC(=O)Nc1ccc([C@@H](O)[C@H]2COCC(=O)N2Cc2ccccc2F)cc1,inactive: 25.6% [at 86.2 µM],–
COc1ccccc1CNC(=O)c1ccc2c(c1)N(Cc1cccc(C)c1)C(=O)c1ccccc1S2(=O)=O,–,"inconclusive: 25.1 µM [inhibitor, partial curve, poor fit]"
CC(=O)NC1(C)CCN(Cc2cnc(-c3cccc(N4CCOCC4)c3)s2)CC1,–,"inconclusive: 35.5 µM [inhibitor, single point]"
COc1ccc(Cl)cc1NC(=O)c1sc(-n2nc(C)c(Cc3ccccc3)c2C)nc1C,inactive: -13.4%,–
c1ccc2[nH]c(CN3CCCC3)nc2c1,inactive: -2.16%,–
c1ccc2c(CN3CCC[C@H]3c3nc(-c4ccnc(N5CCOCC5)c4)no3)c[nH]c2c1,–,"inconclusive: 35.5 µM [inhibitor, partial curve, poor fit]"
COc1ccc(CCc2nc3nccc(-c4ccc(F)cc4OC)n3n2)cc1,–,"inconclusive: 22.4 µM [inhibitor, partial curve, poor fit]"
Cc1ccc(C(=O)NCCc2ccc(Cl)cc2)cc1-n1c(C)nc2cccnc21,–,"inconclusive: 39.8 µM [inhibitor, single point]"
O=C(Nc1ccc(OC(F)F)cc1)c1cc2ccccc2[nH]1,inactive: -1.41%,–
Cc1ccc(NC(=O)c2nn(-c3ccccc3)c(=O)c3ccccc23)c(O)c1,inactive: 12.3%,–
O=C(CNc1cccc(S(=O)(=O)N2CCOCC2)c1)N1CCN(C(=O)c2cccs2)CC1,inactive: 34.7%,–
COC(=O)CO[C@@H]1CO[C@H]2[C@@H]1OC[C@@H]2NC(=S)Nc1cc(C)cc(C)c1,–,active: 28.2 µM
Cc1noc2nc(-c3ccccc3)cc(C(=O)NCc3ccc(N4CCOCC4)nc3)c12,inactive: 12.4%,–
CCN1CC2(CCN(C(=O)C3CCCCN3Cc3ccccc3)CC2)OC1=O (configuration not stated),–,"inconclusive: 22.4 µM [inhibitor, partial curve, poor fit]"
CCOC(=O)N1CCC(NC(=O)c2c(C)nn(-c3ccc(C)cc3)c2-n2cccc2)CC1,–,"inconclusive: 14.1 µM [inhibitor, partial curve, poor fit]"
CN1CC(=O)N(c2ccccc2F)Cc2c1ncnc2N1CCN(c2ccccn2)CC1,–,"inconclusive: 22.4 µM [inhibitor, single point]"
O=C(c1ccccc1C(F)(F)F)N1CCC2(C1)C(=O)Nc1ccccc12 (configuration not stated),inactive: -4.62%,–
Cc1ccc(-c2nccc(N3CCC(O)C3)n2)c(C)c1 (configuration not stated),inactive: -9.54%,–
COc1ccc(-n2nc3n(c2=O)CCN(Cc2ccsc2)C3)cc1,inactive: -3.75% [at 149 µM],–
CSc1ccc(C2CC(=O)Nc3nc(N)sc32)cc1 (configuration not stated),–,"inconclusive: 10 µM [inhibitor, partial curve, poor fit]"
Clc1cccc(-c2noc(-c3ncn4c3COC(c3ccccc3Cl)C4)n2)c1 (configuration not stated),–,"inconclusive: 15.8 µM [inhibitor, single point]"
CC(C)(C)CN1CCC2(CC1)CN[S+](=O)([O-])c1cccnc1O2,inactive: -10.6% [at 149 µM],–
COc1cccc(C(=O)N2CCc3nc(C)nc(-c4ccc(O)cc4)c3C2)c1,inactive: 20.1%,–

Structure (SMILES),"activity change, negative = inhibition",Potency
CCCCOc1ccc(C(=O)Nc2nnc3n2CCS3)cc1,–,"inconclusive: 8.91 µM [inhibitor, partial curve, poor fit]"
Cc1ccc(-c2nnc(Nc3ccc(O)cc3)c3ccccc23)cc1S(=O)(=O)N1CCN(C)CC1,–,"inconclusive: 35.5 µM [inhibitor, single point]"
Cc1cc(S(=O)(=O)[C@H]2CS(=O)(=O)C[C@@H]2N2CCN(c3ccc(F)cc3)CC2)ccc1F,inactive: 15.4%,–
COc1ccc(C)cc1NC(=O)N1CCCC(Cn2c(C3CC3)nc3cccnc32)C1 (configuration not stated),inactive: -12.2%,–
Cc1ccc(CNC(=O)c2ccc(OCC(C)C)cc2)n1C,–,"inconclusive: 20 µM [inhibitor, partial curve, poor fit]"
CCCCNC(=O)Cc1csc2nc(C)c(-c3cc(C)n(-c4ccc(C)cc4)n3)c(=O)n12,–,"inconclusive: 28.2 µM [inhibitor, partial curve, poor fit]"
O=C(Cn1ncc(=O)c2ccccc21)N1CCCC1c1ccc2c(c1)OCCCO2 (configuration not stated),inactive: 9.55%,–
C/C(=N/Nc1ccc2ccccc2c1)c1ccccc1,–,"inconclusive: 35.5 µM [inhibitor, single point]"
COc1ccc(OC)c(CCNC(=O)c2ccc3c(c2)N(Cc2ccc(C)cc2)CCS3)c1,–,"inconclusive: 28.2 µM [inhibitor, partial curve, poor fit]"
CCC(C(=O)NCc1nnc2c(-c3nc(C(C)C)no3)cccn12)c1ccccc1 (configuration not stated),–,active: 12.6 µM
O=C(CCc1nc2ccccc2[nH]c1=O)OCc1cccc(Cl)c1,–,"inconclusive: 39.8 µM [inhibitor, single point]"
Cc1cc(C)cc(NC(=O)CSc2nc3c(oc4ccccc43)c(=O)n2-c2ccccc2F)c1,inconclusive: -37.7% [inhibitor],–
COc1ccc2cc3cc(C(=O)NCc4ccc(C)cc4)oc3nc2c1,–,"inconclusive: 3.98 µM [inhibitor, full curve, poor fit]"
CCCn1c(N2CCN(C(=O)c3ccc(OC)cc3)CC2)nc2sc3c(c2c1=O)CCCC3,inactive: 7.91%,–
CCOC(=O)c1ccc(NC(=O)c2c(NC(C)=O)sc3c2CCC(C)C3)cc1 (configuration not stated),–,"inconclusive: 35.5 µM [inhibitor, partial curve, poor fit]"
CC(C)c1cc(C(=O)O)c(O)c(C(C)C)c1,–,"inconclusive: 39.8 µM [inhibitor, single point]"
Cc1ccc(-c2cn3c(n2)CO[C@@H](CNCc2ccc(Cl)cc2)C3)cc1,–,"inconclusive: 50.1 µM [inhibitor, single point]"
Cc1ccc(N2Cc3c(ncnc3N3CCOCC3)N(C)CC2=O)cc1,–,"inconclusive: 28.2 µM [inhibitor, partial curve, poor fit]"
CCc1cccc2c(C(=O)CSc3nnnn3C3CCCC3)c[nH]c12,inactive: 3.54%,–
O=C(NCCn1cccc1-c1nc(-c2ccc3c(c2)OCO3)no1)c1ccccc1F,–,"inconclusive: 39.8 µM [inhibitor, partial curve, poor fit]"
Cc1ccc(C(=O)N2CCCN(c3cc(-c4ccc(Cl)cc4)[nH]n3)CC2)s1,inactive: -25.8%,–
CCN1c2cc(C(=O)Nc3ccc4c(c3)OCCO4)ccc2C(=O)N2CCCCC21 (configuration not stated),–,"inconclusive: 31.6 µM [inhibitor, partial curve, poor fit]"
CNC(=O)c1cccc(NC(=O)C2CCCCC2)c1,inactive: 26.9%,–

Structure (SMILES),"activity change, negative = inhibition",Potency
O=C1C(=O)N(CCN2CCOCC2)C(c2ccccc2Cl)/C1=C(\O)c1ccc(Cl)cc1 (configuration not stated),–,"inconclusive: 3.16 µM [inhibitor, full curve, poor fit]"
CCN(CCC(F)(F)F)C(=O)c1cc2cccc([N+](=O)[O-])c2[nH]1,inactive: 18.2%,–
Cc1ccc(-c2ccc3nnc(CNC(=O)c4cc(F)ccc4Cl)n3n2)cc1,–,active: 12.6 µM
COc1ccc(C(C)=O)cc1COC(=O)/C=C/c1cccc(Br)c1,inactive: -18.6%,–
Cc1ccc2nc(CN(C)Cc3cc(=O)c4cc(C(N)=O)ccc4[nH]3)[nH]c2c1,–,"inconclusive: 7.08 µM [inhibitor, partial curve, poor fit]"
COC(=O)c1scc(-c2ccc(C)cc2)c1S(=O)(=O)Nc1cc(Cl)ccc1C,–,"inconclusive: 1.58 µM [inhibitor, partial curve, poor fit]"
Cn1c(=O)c(=O)n(C)c2cc(N3CCOCC3)c(NS(=O)(=O)c3ccc(Cl)cc3)cc21,–,"inconclusive: 14.1 µM [inhibitor, partial curve, poor fit]"
O=C(COC(=O)COc1ccccc1F)Nc1ncc(C(F)(F)F)cc1Cl,inactive: -27.4%,–
Cc1ccc(C(=O)/C=C/c2ccc(-c3ccccc3Cl)o2)cc1,–,"inconclusive: 12.6 µM [inhibitor, partial curve, poor fit]"
Cn1c(SCc2ccc(F)cc2)nc2ccc(C(=O)NCc3ccc(Cl)cc3)cc21,inactive: -20.5%,–
O=C(CSc1nc2c([nH]c3ccccc32)c(=O)n1-c1ccccc1F)NCC1CCCO1 (configuration not stated),–,"inconclusive: 25.1 µM [inhibitor, partial curve, poor fit]"
COc1cc(C)cc2oc(=O)c(CC(=O)NCCCO)c(C)c12,–,"inconclusive: 22.4 µM [inhibitor, partial curve, poor fit]"
CCN(CC)c1ccc(NS(=O)(=O)c2ccc(-c3cnc(C4CC4)o3)cc2)c(C)c1,–,"inconclusive: 28.2 µM [inhibitor, partial curve, poor fit]"
CC(NC(=O)C(C#N)C(=O)c1ccc(F)cc1)c1ccccc1 (configuration not stated),inactive: 17.5%,–
N#Cc1nc(-c2ccccc2Cl)oc1N1CCCCC1,–,"inconclusive: 20 µM [inhibitor, partial curve, poor fit]"
Oc1ccccc1-c1cc(C2=CCOCC2)c2cncn2c1,–,active: 31.6 µM
COc1cccc(CN2CCc3c(cc(C(=O)Nc4ccc(C)cc4C)n3C)C2)c1,–,"inconclusive: 35.5 µM [inhibitor, partial curve]"
CCOc1ccc(CC(=O)NCCc2csc(-c3ccc(C)cc3)n2)cc1,–,"inconclusive: 17.8 µM [inhibitor, partial curve, poor fit]"
COc1ccc(NC(=O)Cn2nc3n(c2=O)CCCCC3)cc1Cl,–,"inconclusive: 39.8 µM [inhibitor, partial curve, poor fit]"
COc1ccc(S(=O)(=O)n2nc(C)c(S(=O)(=O)N3CCC(C)CC3)c2C)cc1C,–,"inconclusive: 35.5 µM [inhibitor, single point]"
FC(F)(F)c1ccccc1N/N=C1/CCc2ccccc21,–,"inconclusive: 20 µM [inhibitor, partial curve, poor fit]"
